Source: PubChem BioAssay AID588855 (National Center for Advancing Translational Sciences (NCATS), 2011)
Values joined by “and” are separate entries in the source; they are usually repeats but may differ in a detail not shown here. Equal entries are not always repeated. Hit rate of the full screen: of about 410,000 compounds, about 5,000 (1.2%) were called active. This list was built around the results that the source calls inconclusive (neither active nor inactive); the mix of calls is not that of the screen. Calls follow the shape of the dose curve; as a rule, active = well fitted inhibition curve with a large enough effect; inconclusive = small, poorly fitted or top-dose-only effect; inactive = no such curve, though single readings can be large or run the other way. A potency beside an inconclusive call is a rough fit, not a confirmed value.

Assay: qHTS for Inhibitors of TGF-b; also: nearly all actives have a fitted effect of over 65% in size
Settings: HepG2 CAGA-GFP TGF-b/SMAD3 reporter, GFP fluorescence, 18 h, TGF-beta stimulated, 500 pg/mL final; series mostly up to 46.1 µM; activity, negative = inhibition: at the top concentration
Procedure, shortened: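 Inhibition was scored as loss of TGF-beta-induced (500 pg/mL final, 18 hours, 37 degrees C) GFP in HEPG2 cells carrying a CAGA-GFP reporter, in DMEM with 1% FBS. Well GFP was summed per cell; Activity was normalised to unstimulated and stimulated DMSO wells, then concentration-response fitting.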
% is scaled to controls: 0 for no effect and ±100 for the full control effect; potency is read from the fitted curve at half-maximal effect; tags tell the direction and shape of the fitted curve.

| Compound | Potency | activity, negative = inhibition |
| --- | --- | --- |
| CCN(C[C@H]1N[C@@](C)(C(=O)OC)[C@H]2C(=O)N(C)C(=O)[C@@H]12)C(=O)c1ccc(C)cc1 | inconclusive: 5.62 µM [inhibitor, single point] |  |
| O=[N+]([O-])c1cnc(Sc2ccncn2)c([N+](=O)[O-])c1 | inconclusive: 35.5 µM [inhibitor, single point] |  |
| O=C(c1cccs1)N1N=C(c2ccccc2)CC1c1ccc(O)cc1 (centres undefined) | inconclusive: 35.5 µM [inhibitor, single point] |  |
| CNC(=O)c1ccsc1NC(=O)CS(=O)(=O)c1ccc(F)cc1 | inconclusive: 0.1 µM [inhibitor, full curve, poor fit] |  |
| COc1ccc2nc(NN=C(C)c3ccccn3)cc(C)c2c1 | active: 1.12 µM |  |
| CCOc1cc(CNC(=O)NC2COc3ccc(OC)cc3C2)cc(OCC)c1OCC (centres undefined) |  | inactive: -27.2% |
| Nc1nc(-c2ccccc2Br)cs1 | inconclusive: 35.5 µM [inhibitor, single point] |  |
| O=C(c1ccccc1)c1ccc2nc(-c3ccc(NC(=O)c4ccccc4F)cc3)[nH]c2c1 | inconclusive: 14.1 µM [inhibitor, single point] |  |
| O=c1cc(N2CCN(Cc3ccccc3)CC2)[nH]c(=O)n1-c1cccc(C(F)(F)F)c1 |  | inactive: 5.33% |
| Cc1c(C(=N)C(C#N)C#N)c(=N)oc2c1ccc1ccccc12 | inconclusive: 35.5 µM [inhibitor, single point] |  |
| CC(=O)N1CCN(C(C)=O)C1c1ccccc1 | inconclusive: 5.62 µM [inhibitor, single point] |  |
| COc1ccc(C(C)(O)c2nc(-c3ccc(S(C)(=O)=O)cc3)cs2)cc1 (centres undefined) |  | inactive: 10.7% |
| COc1ccc(C2/C=C\CN(C(=O)c3ccccc3)CC(=O)N2Cc2cccc(F)c2)cc1 (centres undefined) | inconclusive: 14.1 µM [inhibitor, partial curve, poor fit] |  |
| CC(OC(=O)c1ccc([N+](=O)[O-])s1)C(=O)Nc1ncc(Cl)cc1Cl (centres undefined) | inconclusive: 11.2 µM [inhibitor, partial curve, poor fit] |  |
| COC(=O)c1cccc(Nc2cc(C)nc(-c3ccccc3O)n2)c1 |  | inactive: 1.87% |
| O=C(C(=O)c1ccc(O)c(O)c1)c1ccc(O)c(O)c1 | inconclusive: 35.5 µM [inhibitor, partial curve, poor fit] |  |
| CCOC(=O)c1cc(C)n(CC2CCC(C(=O)Nc3ccc(C)c(F)c3)CC2)c1C (centres undefined) | inconclusive: 2.51 µM [inhibitor, full curve, poor fit] |  |
| O=C(c1ccc(CSc2nc3ccncc3[nH]2)cc1)N1CCCCC1 | inconclusive: 6.31 µM [inhibitor, single point] |  |
| CC(=O)O[C@H]1[C@@H](O)[C@H](O)[C@H](Oc2c(O)c(C)c3c4c2[C@@H](C)CC[C@@H]4[C@@H](C)C[C@H]3C=C(C)C)O[C@H]1C | active: 11.2 µM |  |
| C/C(=N\NC(=S)Nc1c(C)cccc1C)c1cc2ccccc2o1 | inconclusive: 2 µM [inhibitor, partial curve, poor fit] |  |
| CC(Cc1ccccc1)=NNc1ccc([N+](=O)[O-])cc1[N+](=O)[O-] |  | inactive: 0% |
| Cc1ccc(SCc2c(-c3ccccc3)nn(C)c2Cl)cc1 |  | inactive: 5.71% |

| Compound | Potency | activity, negative = inhibition |
| --- | --- | --- |
| CN(C)CCCN(C(=O)c1cc(Cl)sc1Cl)c1nc2cc3c(cc2s1)OCO3 | inconclusive: 35.5 µM [inhibitor, partial curve, poor fit] |  |
| CCn1c(SCC(=O)Nc2oc(-c3ccccc3)c(-c3ccccc3)c2C#N)nnc1-c1ccco1 | inconclusive: 35.5 µM [inhibitor, single point] |  |
| CN(C)/C(Cn1cncn1)=C1/N=C(c2c(F)cccc2F)OC1=O | inconclusive: 3.16 µM [inhibitor, single point] |  |
| NC(=O)C1CCN(C(=O)CN(C2CCCCC2)S(=O)(=O)c2ccc(F)cc2)CC1 |  | inactive: -11.4% |
| O=C(Cn1c(=O)n(-c2ccccc2Cl)c(=O)c2sc3ccccc3c21)NC1CCCCC1 |  | inactive: 5.16% |
| Cc1ccc(C(=O)C=Cc2ccc3c(c2)OCO3)c(C)c1 |  | inactive: 0.431% |
| CCC(C)(C)n1nnnc1C(c1ccc(C)cc1)N(Cc1ccco1)Cc1cccs1 (centres undefined) |  | inactive: -2.6% |
| Cc1ccc(N(O)C(=O)NCCCCNC(=O)N(O)c2ccc(C)cc2)cc1 |  | inactive: -28.3% |
| O=C1C=CC(O)C2(CO)OC12 (centres undefined) | inconclusive: 35.5 µM [inhibitor, single point] |  |
| Cc1ccc(S(=O)(=O)N2CCOCC2)cc1NC(=O)COC(=O)c1ccc(Br)o1 |  | inactive: -6.43% |
| O=C(Nc1ccc(Cl)c(S(=O)(=O)N2CCOCC2)c1)c1ccc2c(c1)OCCO2 | inconclusive: 25.1 µM [inhibitor, single point] |  |
| CCc1ccc(C(=O)Cn2ncc(Cl)c(Cl)c2=O)cc1 | inconclusive: 35.5 µM [inhibitor, single point] |  |
| CC(=O)C1=C(c2ccc(C)c(C)c2)N(C(C)=O)n2c(nnc2-c2ccc(Cl)cc2)S1 |  | inactive: -4.15% |
| O=C(COC(=O)c1cnccn1)Nc1ccc(Cl)cn1 | inconclusive: 6.31 µM [inhibitor, single point] |  |
| CCOc1ccccc1NC(=S)N1CCN(c2ccc(OC)cc2)CC1 | inconclusive: 5.62 µM [inhibitor, partial curve] |  |
| O=C(O)CSc1cc(NS(=O)(=O)c2ccc(Br)cc2)c2ccccc2c1O | inconclusive: 6.31 µM [inhibitor, single point] |  |
| CS(=O)(=O)c1ccc(CNC(=O)C2(C(F)(F)F)C/C(=C\Cc3ccccc3)CCCO2)cc1 (centres undefined) | inconclusive: 11.2 µM [inhibitor, single point] |  |
| CCCCCCSc1nsc(NC(=O)CC(C)C)n1 | inconclusive: 35.5 µM [inhibitor, single point] |  |
| O=C(COC(=O)c1cccc(N2C(=O)c3ccccc3C2=O)c1)Nc1ccccc1 | inconclusive: 35.5 µM [inhibitor, single point] |  |
| Cc1ccccc1C(=O)N1[C@@H](C(C)C)COc2cc(Br)ccc2S1(=O)=O | inconclusive: 22.4 µM [inhibitor, single point] |  |
| CC(C)[C@H](NC(=O)c1ccc(Cl)c([N+](=O)[O-])c1)C(=O)NCc1ccc(F)cc1 | inconclusive: 0.794 µM [inhibitor, full curve, poor fit] |  |
| Cc1c(Cl)cccc1-n1cnc(=O)c2ccccc21 |  | inactive: -10.1% |

| Compound | Potency | activity, negative = inhibition |
| --- | --- | --- |
| CCN(CC)C(=O)[C@H]1C[C@H](CC(=O)NCC23CC4CC(CC(C4)C2)C3)C(=O)N2CCc3c([nH]c4cc(CCC(=O)N(C)C)ccc34)[C@]12C | inconclusive: 22.4 µM [inhibitor, single point] |  |
| COc1ccc(-c2cc(=Nc3c(C)n(C)n(-c4ccccc4)c3=O)c3ccccc3o2)cc1 |  | inactive: -11.4% |
| CN(C(=O)COC(=O)c1cc(NS(=O)(=O)c2cc([N+](=O)[O-])ccc2Cl)ccc1O)C1CCCCC1 | inconclusive: 12.6 µM [inhibitor, single point] |  |
| CCCCOc1ccc(/C=C/C(=O)Nc2ccc(C(N)=O)cc2)cc1 |  | inactive: -11.8% |
| CCOC(=O)Cn1nc(C)c(NC(=O)COc2ccc(Cl)cc2C)c1C | inconclusive: 11.2 µM [inhibitor, partial curve] |  |
| CC(C)(C)NC(=O)Cn1c(-c2nonc2N)nc2ccccc21 | inconclusive: 3.16 µM [inhibitor, partial curve, poor fit] |  |
| COc1cc2oc3ccc(C#Cc4ccc(N)cc4)cc3c(=O)c2cc1OC |  | inactive: -15.8% |
| CC(Nc1cccc2ccccc12)C(=O)N/N=C/c1ccc([N+](=O)[O-])cc1 (centres undefined) | inconclusive: 35.5 µM [inhibitor, single point] |  |
| Cc1cc(NC(=O)C2CCN(S(=O)(=O)c3ccc4[nH]c(=O)oc4c3)CC2)ccc1Br | inconclusive: 11.2 µM [inhibitor, partial curve] |  |
| CC(C)(C)c1ccc(-n2ncc3c2CCCC3NC(=O)CCCn2cncn2)cc1 (centres undefined) |  | inactive: -4.53% |
| COc1ccc(NC(=O)O[C@@H](C)[C@@H]2CN3CCc4c([nH]c5ccc(-c6ccc(OC)cc6)cc45)[C@@H]3C[C@@H]2N(C)C(=O)Nc2ccc(OC)cc2)cc1 | inconclusive: 12.6 µM [inhibitor, partial curve] |  |
| Cn1nc(C(F)(F)F)c(-c2ccc(Br)cc2)c1NC(=O)Nc1ccc(F)cc1F | inconclusive: 28.2 µM [inhibitor, single point] |  |
| Cc1ccc(C(=O)/C=C/c2cn(CN3CCN(C)CC3)c3ccccc23)cc1 | inconclusive: 15.8 µM [inhibitor, single point] |  |
| Cc1cc2occ(CC(=O)N(C)CC(=O)Nc3cccc(F)c3)c2cc1C |  | inactive: -15.4% |
| CCOc1ccc2[nH]c(=O)c(=O)[nH]c2c1 | inconclusive: 2.51 µM [inhibitor, partial curve, poor fit] |  |
| COc1ccc2c(c1)c1c(c(=O)n(-c3cccc(Cl)c3)c(=O)n1CC(=O)N1CCCC1)n2C | inconclusive: 3.16 µM [inhibitor, single point] |  |
| CCOC(=O)C[C@H]1c2ccc(C(F)(F)F)cc2S(=O)(=O)N1c1cccc(OC)c1 | inconclusive: 35.5 µM [inhibitor, single point] and inconclusive: 35.5 µM [inhibitor, partial curve, poor fit] |  |
| COc1ccccc1-c1n[nH]c2c1[C@H](C)CC[C@H]2C(C)C | inconclusive: 11.2 µM [inhibitor, single point] |  |
| Cc1cccc(C)c1NC(=S)N/N=C/c1ccc(OCCC(C)C)cc1 |  | inactive: 0% |
| COc1ccc(/C=N/Nc2c(Cl)cc(Cl)cc2Cl)cc1CN1CCOCC1 | inconclusive: 22.4 µM [inhibitor, single point] |  |
